Assay results from the supplement of paper PMC9446081.
In all, about 39,000 compounds went through this assay and about 220 (0.56%) showed activity. The list shows a part of the results.
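Also: static incubation at 37 °C against the wild-type strain, values averaged over two biological replicates.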

The molecules below were run on Escherichia coli K-12 BW25113 (assay: relative growth (OD600 normalised to plate interquartile mean) (fraction); higher = less growth inhibition, active = 0.2 or less). Details: 50 µM; LB; incubation time: overnight (16-24 h).
With `C[C@H](CO)N1C[C@H](C)[C@H](CN(C)S(=O)(=O)c2cn(C)cn2)Oc2c(NC(=O)c3nc4ccccc4s3)cccc2C1=O` the relative growth was inactive: 0.979. For `C[C@@H]1CCCCO[C@H](CN(C)S(=O)(=O)c2cccs2)[C@@H](C)CN([C@@H](C)CO)C(=O)c2cc(NC(=O)Nc3cccc4ccccc34)ccc2O1`, the relative growth was inactive: 1.03. For `C[C@H](CO)N1C[C@H](C)[C@H](CN(C)Cc2cccc(C(F)(F)F)c2)OCc2ccccc2-c2ccccc2C1=O`, the relative growth was inactive: 1.07. In the case of `NC(=O)C12CC3C[C@@H](C1)C(=O)[C@@H](C3)C2`, the relative growth is reported as inactive: 1.02. For `C[C@H]1CN([C@@H](C)CO)C(=O)c2cc(NC(=O)Cc3ccccc3)ccc2O[C@@H]1CN(C)S(=O)(=O)c1cn(C)cn1`, the relative growth was inactive: 1.02. With `COc1ccccc1C(=O)N1CCNCC1` the relative growth was inactive: 1.02. `N[C@@H](Cc1ccccc1F)C(=O)O` was tested, and the relative growth was inactive: 1.01. `COC[C@H](O)CNNC(=O)OC(C)(C)C` was tested, and the relative growth was inactive: 1.01. With `C[C@H](CO)N1C[C@H](C)[C@H](CN(C)C(=O)NC2CCCCC2)Oc2ccc(NS(C)(=O)=O)cc2CC1=O` the relative growth was inactive: 1.02. For `C[C@H]1CCCCO[C@H](CN(C)Cc2ccccc2)[C@@H](C)CN([C@@H](C)CO)C(=O)c2cc(NC(=O)Nc3ccc(C(F)(F)F)cc3)ccc2O1`, the relative growth was inactive: 1.01. With `C[C@H]1CN([C@@H](C)CO)C(=O)Cc2cc(NC(=O)CCCN(C)C)ccc2O[C@H]1CN(C)S(=O)(=O)c1ccc(Cl)cc1` the relative growth was inactive: 0.99. `C[C@H](CO)N1C[C@H](C)[C@H](CN(C)C(=O)Cc2ccccc2)OCCCC[C@H](C)Oc2ccc(NC(=O)Nc3ccccc3)cc2C1=O` was tested, and the relative growth was inactive: 0.965. With `Cc1noc(C)c1S(=O)(=O)N(C)C[C@H]1Oc2ccc(NC(=O)C3CC3)cc2CC(=O)N([C@@H](C)CO)C[C@@H]1C` the relative growth was inactive: 1.01. With `COc1ccccc1-c1cccc(-c2nc(C(=O)Nc3nccs3)cc3c2[C@H](CCO)N(C(=O)CC2CC2)C3)c1` the relative growth was inactive: 1.06. `CC(C)C[C@@H]1NC(=O)[C@H]2C[C@@H](C(=O)NCCCCCCNC(=O)CS)[C@@H](c3cccc(OCCO)c3)N2C1=O` was tested, and the relative growth was inactive: 1.02. With `C[C@@H]1CCCCO[C@@H](CN(C)S(=O)(=O)c2ccccc2)[C@H](C)CN([C@@H](C)CO)C(=O)c2cc(NS(=O)(=O)c3cn(C)cn3)ccc2O1` the relative growth was inactive: 0.994. For `Cc1ccc(S(=O)(=O)N2C[C@H](O)COC[C@H]3O[C@@H](CC(=O)NCCN4CCCCC4)CC[C@@H]32)cc1`, the relative growth was inactive: 1.04. With `Cc1ccc(S(=O)(=O)N[C@H](C(=O)NCCn2cc(C(=O)NO)nn2)C(C)C)cc1` the relative growth was inactive: 1.01. For `C[C@H](NC(=O)N(C)C[C@@H]1OCc2ccccc2-c2ccccc2C(=O)N([C@@H](C)CO)C[C@H]1C)c1ccccc1`, the relative growth was inactive: 0.997. For `C[C@H]1CN([C@@H](C)CO)C(=O)c2cc(NC(=O)Nc3ccc(C(F)(F)F)cc3)ccc2O[C@H]1CN(C)Cc1ccncc1`, the relative growth was inactive: 0.992. In the case of `Nc1ncnc2c1ncn2[C@@H]1O[C@H](CO)[C@@H](O)[C@@H]1O`, the relative growth is reported as inactive: 0.998. `COc1ccc(NC(=O)Nc2cccc3c2O[C@@H](CN(C)S(=O)(=O)c2cn(C)cn2)[C@@H](C)CN([C@@H](C)CO)C3=O)cc1` was tested, and the relative growth was inactive: 1. With `C[C@@H]1CN([C@@H](C)CO)C(=O)c2cc(NC(=O)Cc3ccccc3)ccc2O[C@@H](C)CCCCO[C@H]1CN(C)C(=O)Nc1ccccc1` the relative growth was inactive: 1.03. `COCC(=O)N1C[C@@H](C)[C@@H](OC)CN(C)C(=O)c2cc(NC(=O)c3cc(C)on3)ccc2OC[C@H]1C` was tested, and the relative growth was inactive: 0.975. In the case of `C[C@H]1CN([C@@H](C)CO)C(=O)c2cccc(NC(=O)c3ccc(-c4nccs4)cc3)c2O[C@@H]1CN(C)Cc1ccc(Cl)c(Cl)c1`, the relative growth is reported as inactive: 1.01. For `COc1ccc2c3c([nH]c2c1)[C@H](CO)N(C[C@]13CCN(CCc2ccccc2)CC1)C(=O)CN1CCOCC1`, the relative growth was inactive: 1.01. `O=C(C[C@H]1C[C@@H]2c3cc(NS(=O)(=O)c4ccc(F)cc4)ccc3O[C@@H]2[C@H](CO)O1)NC1CCCCC1` was tested, and the relative growth was inactive: 0.983. For `C[C@H](CO)N1C[C@H](C)[C@H](CN(C)S(C)(=O)=O)Oc2ccc(NC(=O)CCN3CCOCC3)cc2CC1=O`, the relative growth was inactive: 0.978. In the case of `Cc1sc2ncnc(N3CCC(Cn4cc(C(C)(C)N)nn4)CC3)c2c1C`, the relative growth is reported as inactive: 1.01. With `Cc1noc(C)c1S(=O)(=O)Nc1ccc2c(c1)C(=O)N([C@@H](C)CO)C[C@H](C)[C@@H](CN(C)S(C)(=O)=O)O2` the relative growth was inactive: 0.986. `C[C@H](CO)N1C[C@H](C)[C@@H](CN(C)C(=O)Nc2cccc3ccccc23)OCCCC[C@H](C)Oc2ccc(NC(=O)c3ccccc3)cc2C1=O` was tested, and the relative growth was inactive: 1.02. With `Cc1noc(C)c1S(=O)(=O)N(C)C[C@H]1Oc2ccc(NS(C)(=O)=O)cc2C(=O)N([C@@H](C)CO)C[C@H]1C` the relative growth was inactive: 0.989. In the case of `C[C@H]1CN([C@@H](C)CO)C(=O)c2cc(C#CCN(C)C)cnc2O[C@H]1CN(C)Cc1ccc2c(c1)OCO2`, the relative growth is reported as inactive: 0.972. `Cc1noc(C)c1NC(=O)Nc1ccc2c(c1)C(=O)N([C@H](C)CO)C[C@@H](C)[C@@H](CN(C)Cc1ccc(C(F)(F)F)cc1)OCCCC[C@@H](C)O2` was tested, and the relative growth was inactive: 1.02. With `Cc1ccc(S(=O)(=O)Nc2ccc3c(c2)CC(=O)N([C@H](C)CO)C[C@@H](C)[C@@H](CN(C)C(=O)Nc2cccc4ccccc24)O3)cc1` the relative growth was inactive: 0.988. With `Cc1noc(C)c1S(=O)(=O)N(C)C[C@H]1Oc2ccc(NC(=O)NC3CCCCC3)cc2CC(=O)N([C@@H](C)CO)C[C@@H]1C` the relative growth was inactive: 0.994. `CO[C@@H]1CN(C)C(=O)c2ccc(NS(=O)(=O)c3ccccc3)cc2OC[C@@H](C)N(C(=O)NC(C)C)C[C@H]1C` was tested, and the relative growth was inactive: 1. In the case of `COc1ccc(-c2cnc3c(c2)C(=O)N([C@H](C)CO)C[C@H](C)[C@@H](CN(C)S(=O)(=O)c2ccc(OC)cc2)O3)cc1`, the relative growth is reported as inactive: 1. With `C[C@H](CO)N1C[C@H](C)[C@@H](CN(C)C(=O)Nc2ccc(-c3ccccc3)cc2)OCc2ccccc2-c2ccccc2C1=O` the relative growth was inactive: 1.01. For `C[C@@H]1CCCCO[C@@H](CN(C)C(=O)C2CCCCC2)[C@H](C)CN([C@H](C)CO)C(=O)c2cc(NC(=O)c3ccncc3)ccc2O1`, the relative growth was inactive: 1.01. `Cc1noc(C)c1S(=O)(=O)N(C)C[C@@H]1OCCCC[C@@H](C)Oc2ccc(NS(=O)(=O)c3cn(C)cn3)cc2C(=O)N([C@@H](C)CO)C[C@H]1C` was tested, and the relative growth was inactive: 0.99. For `NC1=NCCCC1`, the relative growth was inactive: 0.991. `C[C@@H]1CCCCO[C@H](CN(C)CC2CCCCC2)[C@@H](C)CN([C@H](C)CO)C(=O)c2cc(NC(=O)Nc3ccc(F)cc3)ccc2O1` was tested, and the relative growth was inactive: 1.01. In the case of `C=C(C(=O)O[C@H]1CC=C(C)C[C@H](O)[C@H]2[C@H](C)C(=O)O[C@@H]2/C=C/1C)[C@@H]1CCC(=C)[C@@H]2C[C@H](O[C@@H]3O[C@H](CO)[C@@H](O)[C@H](O)[C@H]3O)C(=C)[C@@H]2C1`, the relative growth is reported as inactive: 0.957. `C[C@H]1CN([C@@H](C)CO)C(=O)c2cccc(NC(=O)Nc3cccc4ccccc34)c2O[C@H]1CN(C)Cc1ccc(-c2ccccc2)cc1` was tested, and the relative growth was inactive: 1.03. `Cc1ccc(OC(=O)N(C)C[C@@H]2OCc3ccccc3-c3ccccc3C(=O)N([C@H](C)CO)C[C@@H]2C)cc1` was tested, and the relative growth was inactive: 1.06. With `COc1ccc(S(=O)(=O)N(C)C[C@@H]2OCCCC[C@H](C)Oc3ccc(NS(=O)(=O)c4ccc(Cl)cc4)cc3C(=O)N([C@H](C)CO)C[C@H]2C)cc1` the relative growth was inactive: 1.05. `C[C@H]1CN([C@@H](C)CO)C(=O)c2cccc(NC(=O)c3ccc(-c4nccs4)cc3)c2O[C@H]1CN(C)C(=O)Nc1cccc2ccccc12` was tested, and the relative growth was inactive: 1.01. `C[C@H](CO)N1C[C@H](C)[C@H](CN(C)S(C)(=O)=O)Oc2ccc(NC(=O)NC3CCCCC3)cc2CC1=O` was tested, and the relative growth was inactive: 0.992. With `Cc1noc(C)c1NC(=O)Nc1ccc2c(c1)C(=O)N([C@H](C)CO)C[C@@H](C)[C@@H](CN(C)S(=O)(=O)c1cn(C)cn1)O2` the relative growth was inactive: 1.03. `Cc1noc(C)c1NC(=O)Nc1ccc2c(c1)C(=O)N([C@H](C)CO)C[C@H](C)[C@H](CN(C)C(=O)Nc1cccc3ccccc13)OCCCC[C@@H](C)O2` was tested, and the relative growth was inactive: 0.999. With `C[C@H](CO)N1C[C@H](C)[C@H](CN(C)S(=O)(=O)c2ccccc2F)Oc2cc(C#Cc3ccccc3)ccc2S1(=O)=O` the relative growth was inactive: 1.04. With `Cc1cccc(/C=C(\CCC(=O)O)c2nc3ccccc3s2)c1` the relative growth was inactive: 0.995. `Cc1noc(C)c1S(=O)(=O)Nc1ccc2c(c1)C(=O)N([C@@H](C)CO)C[C@@H](C)[C@@H](CN(C)S(C)(=O)=O)OCCCC[C@@H](C)O2` was tested, and the relative growth was inactive: 1.01. For `CCNC1CC(N)C(OC2OC(CN)=CCC2N)C(O)C1OC1OCC(C)(O)C(NC)C1O.O=S(=O)(O)O.O=S(=O)(O)O` (stereo not given), the relative growth was inactive: 1.11. For `C=C1CC2C3C=C(C)C4=CC(=O)CCC4(C)C3CCC2(C)C1(OC(C)=O)C(C)=O` (stereo not given), the relative growth was inactive: 1.06. In the case of `COCC(=O)N1C[C@]2(CCN(CC2)C(=O)CN2CCOCC2)c2c([nH]c3cc(ccc23)OC)[C@H]1CO`, the relative growth is reported as inactive: 1. With `Cn1ccc(C(=O)N2CCC3(CCOC[C@@H]3NS(C)(=O)=O)CC2)n1` the relative growth was inactive: 1.01. For `C[C@@H]1CN([C@@H](C)CO)C(=O)Cc2cc(NS(C)(=O)=O)ccc2O[C@H]1CN(C)C(=O)Nc1ccccc1`, the relative growth was inactive: 0.988. `CC(C)N(CCCNC(=O)Nc1ccc(C(C)(C)C)cc1)C[C@H]1O[C@@H](n2cnc3c(N)ncnc32)[C@@H](O)[C@H]1O` was tested, and the relative growth was inactive: 0.961.
